Laboratory results reported in PubChem BioAssay (NCI).
Some structures have more than one record in an assay (separate samples or runs), and their calls can disagree.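 Each cell line was grown in a 96-well plate and treated with one concentration of compound for 48 hours. Values below 10 were considered active.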 For part of its entries the source gives two or more results. This is not the full list of results. An entry can have further records. This drug was run again and again over the years, at its own concentration, as given; one value stands for one run. Marks such as (2×) stand for listed records that agree.

System: OVCAR-5 ovarian
Experiment: NCI-60 one-dose screen, 48 h (100 = growth as untreated, 0 = no growth, -100 = all killed)

`COc1cccc2c1C(=O)c1c(O)c3c(c(O)c1C2=O)C[C@@](O)(C(=O)CO)C[C@@H]3OC1CC(N)C(O)C(C)O1` (some centres not stated) was tested, and the growth (0.25 µM, runs of 2018) was “inactive: 78.8, 79.2 (2×), 77 (2×), 79.6, 83.4, 82.8 (2×), 73.8, 78.5, 75.8, 80.7 (2×), 82.3, 88.9, 89, 95, 83.7 (2×), 89.2, 76.9 (2×), 82.5, 84, 71.8, 74, 76, 77.4, 87.2, 74.7, 83, 87.4 (3×), 83.1, 78.2 (3×), 90, 89.1, 82 (2×), 81.4, 88.7, 79.1, 82.6, 85.6, 80.5, 75.3, 79.8, 52.7%”, the growth (0.25 µM, runs of 2019) was “inactive: 61.6, 68.5, 63.9, 50.6, 62.5, 72, 84.4, 79.1, 88.2 (2×), 97.5, 78.5, 77.7 (2×), 94.5, 96.1, 74.7, 83.7, 67.2, 66.1, 73.6, 70.6, 81.2, 79.6, 80, 81.5, 98.3, 91.6, 86.8, 85.4, 87.2, 81.1, 91.5, 76.7, 82.7, 86.1, 85.9, 82.9, 74, 76.8, 74.9, 89.6, 67.5, 75.4, 65, 65.1%” and the growth (0.25 µM, runs of 2020) was “inactive: 74, 69.4, 74.4, 80.7, 76.2, 76.7, 67.2, 77.7, 71.2, 73.8, 77.1, 68.9, 70.5 (2×), 78.5 (2×), 89.7, 77.5 (2×), 73.3, 82.9, 81, 90.4, 74.6, 79.2%”. For the same compound, the growth (0.25 µM, runs of 2021) was “inactive: 89.9, 96.4, 101, 83.7, 81.2, 78.4, 58.2, 70.6, 65.7, 72.3, 65.4 (2×), 64, 72.9 (2×), 81.7, 80.1 (2×), 75.9, 79.1, 76.2, 63.2, 81.1, 88.2 (2×), 72.4, 78.7 (2×), 64.8, 71.5, 79, 77.4, 80.6, 79.2, 75.1, 73.5, 68.5, 75.3, 78.8, 85.8, 80.3 (2×), 86.4, 58.9, 70.9, 63.1, 71, 53.4, 67.6 (2×), 80.2, 74.3%”, the growth (0.25 µM, runs of 2022) was “inactive: 16.8, 16, 64, 78.4, 56.8, 35.3, 55.8, 60.2, 73.5, 65.9, 68.2, 84, 70, 78.1, 82.2, 75.4, 70.8, 89.7, 98.5, 93.7, 109, 87.5, 65.3, 69.2, 62.4, 68, 55.1% and active: 7.62%” and the growth (25 µM, runs of 1991) was “active: -10.9, -68.4, -55.2, -42.6, -43.6, -4.91, -14.1, -54.5, -37.3, -13.8, 5.42, -27.7, -15.4, -28.5, -5.01% and inactive: 14%”. For the same compound, the growth (25 µM, runs of 1992) was “active: -46.5 (2×), 3.91, -22.2, -6.93, -38.8, -53.2, -70, -34.9, -45.1, -8.29, -25, -35.3, -37.1 (2×), -16.4, -16, -24.5, -27.5 (2×), -23.8, -40.1, -43.6, -42.5, -43.7 (2×), -16.5, -46.4, 7.7, -39.1, 0, -43.1, -21 (2×), -12.3, -28.2, -39.7, -40.3, -21.7, -28, -50.4, -41.1, -31.5, -25.8, -34.8, -11.2, -5.57, 0.528, -12, -2.61, -28.9, -39.6, -32.3, -23.4, -35.8, -22.5, -42.4, -34.6 (2×), -15.1, -18.2, -11, -23.5, -31, -36.8, -6.76, -22.8, -17.3, -17.2, -11.7, -18.6, -13.4, -7.74, -26, -3.84, -4.55, -21.4, -8.14, -48.6, -12.5, -19.2, -21.2, -10.8, -24.4, -12.8, -12.2, -17.5, -18.4, -17.1, -42.7, -6.99, -9.42, 0.828, -41.8, -39.2, -16.1, -8.48, 3.18, -27.1, -33.3, -16.2, -38.4, -24.9, -28.4, -15.5, -49.7, -41.5, -29.9% and inactive: 14.6%”, the growth (25 µM, runs of 1993) was “active: -38.7, -10.5, -24.1, 1.2, -12.4, -21.1, -17.6, 6.78, 1.8, -41.1, -31, -9.4 (2×), -15.4 (2×), -6.39, 1.93, 0.591, -46.7, -20.6, -1.08, -7.43, -32.9, -2.1, -40.6, -17.2, 5.33, -43.5, -21.3, -30.6, -30.5, -30, -15.2, -34.6, -25.8, 6.58, -34.3, -6.73, -12.2, -13, 0.969, -18.8%” and the growth (25 µM, runs of 1994) was “active: -15.4, 0.804, 1.4, -13.3, -3.85, -26.2, 7.01, -8.78, -41.5, -5.47, 6.48, -7.51, -3.03, -33.7, -15.3, -15, -22.4, 3.24, -34.6, -19.2, -23.1, -32.3, -5.58, -39.5, -14, -6.2, 3.68, -13.8, 2.88, 0.36% and inactive: 51.6%, 12.5%”. The growth (25 µM, runs of 1995) was “active: 7.17, 3.83, -2.2, 8.14, -18.3, 1.45, -20, 5.07, -3.42, -33.9, -25.3, -30.4, -24.3, -27, 5.25, 0.793, -47.9, -17.8, -17.1, -21.5, 8.92, -17.4, 8.52, 0.575, 1.39, -11.1, -7.21, -16.8, -2.81, -0.949, -36.4, -34.8, -42.5, -19% and inactive: 29.7%, 13.3%”, the growth (25 µM, runs of 1996) was “active: -4.46, 5.26, -11.8, -1.09, -37.5, -7.84, 9.37, 6.03, -14.1, -7.99, -11.5, 3.58, 2.38, -13.5, 1.17, -40, -16.9, 0.888, 7.91, -14.8, 5.18, 6.54, 8, -11.9, 0, -7.14, -29.2, -11.6, -19.3, -32.6, -13.7, -1.86, 2.58, -2.01 (2×), -6.43, -38.4, 5.3, 1.16, -5.95, -15.9, -10, 0.606, -19.8, 3.46, -17.9, 2.09, -2.18, 2.42, -6.19, 2.54, 2.77, -8.3, -10.9% and inactive: 102, 100, 21.9, 23.7%” and the growth (25 µM, runs of 1997) was “active: -4.39, -10.7, -12.5, -3.4, -7.84, -41.2, 1.01, -21.5, -7.3, -27, -40.5, -0.249, -33.4, -4.07, -13.4, 3.28, -80.7, -12.7, -7.83, -5.92, -43.3, 6.93, -6.63, 3.06, 8.48, -2.45, 6.95, -35.9, -13.2, 7.46, -22.2, 7.5, -29.4, -4.22, 4.01, 3.31, -4.52, 4.91, -11.5, -3.46, -27.5, -14.4% and inactive: 10, 13.7, 13.9, 15%”.
